Measured values reported in publication PMC12136788.
The list shows a part of the results.

B1: chr4:113189463:113189464:+_ENSG00000138660_ENST00000274000|hu_hu|FALSE|FALSE (ssRNA)
RNA: GGGAGUUCUACAGUCCGACGAUCUACAGGAUUUACAAAUCCAGAAUACUCGGAAUUUCCAUUAUCAUCCAUUUCGGCACUAACAAAAUCAUUUUCCCACUCCAGCCCAUUGGAAUCAUCAGAGGCUGAUGUAGGAUUACUUCCCAACAGAGGAUUGAGCAUCA
B2: chr3:98235988:98235989:-_ENSG00000080822_ENST00000341181|hu_hu|FALSE|FALSE (ssRNA)
RNA: GGGAGUUCUACAGUCCGACGAUCUAAGCUUCGGCAAAUGCAAGCACAAAGUCCGAUCAAAGCCCCAAAGCACAUCAAACCUAAACUCACAAAAGGUAAAAGGAACUGGCAACGCCAAAGAUAGGUCCUAAGGAGAUCAAUCCCCAACAGAGGAUUGAGCAUCA
B3: chr7:43916975:43916976:-_ENSG00000106608_ENST00000402306|hu_mus|FALSE|FALSE (ssRNA)
RNA: GGGAGUUCUACAGUCCGACGAUCGCCAAACAUGGUGUUAAGGAGUGUAGAUUUCCCUGUGCCAGGCACCCCCAGGGCAGAGAGAACCACUAGCCGAGAUCUCCUGUCUAGGCGGGUAUGCAGCUCCUUGAGAAGCCCAGUGACCAACAGAGGAUUGAGCAUCA
B4: 122561622_122562076_2327_CDS_ENSMUSG00000020124_ENSMUST00000020334|mouse|control|control (ssRNA)
RNA: GGGAGUUCUACAGUCCGACGAUCUUUUAACUUCACAAAGGGCCUUUUUGGAGGUUUGUAUUCCACACUUUCAUGUUUUUCAAAAUCCUCUGCAGCAUUCUCAUCAAAGUAUCUCUUCUUCAAGUCAGGGUCCCAGUCCAAAGCCAACAGAGGAUUGAGCAUCA
B5: 7389461_7389807_1617_ncRNA_ENSMUSG00000031153_ENSMUST00000132456|mouse|control|control (ssRNA)
RNA: GGGAGUUCUACAGUCCGACGAUCCUGCUUCAGGUUGCUGAUGGUCUUCACGUGGCCAUCUCGCUCCUCCUGGGCCUGCUGGAGCUGUUCCCGAACAUUCUGAAGCUCUUCAUCCUUGCCCUUCAGCUCAGCGGCGUGCUCCUCCAACAGAGGAUUGAGCAUCA
B6: chr2:101883234:101883235:+_ENSG00000158435_ENST00000289382|hu_mus|FALSE|FALSE (ssRNA)
RNA: GGGAGUUCUACAGUCCGACGAUCGAAAUACUCCGUGAUCUGGCUUGACUGCAUCAGUUUCAGCAGCAUUUCUAUAGCGACUAAAGGGUUGUUCUCCACUAGAUCUGGAAGUUUCGCUGGAGUAAGGCCAAUGUGAUAAACAAGCAACAGAGGAUUGAGCAUCA
B7: chr6:114267272:114267273:-_ENSG00000196591_ENST00000368632|hu_mus|FALSE|FALSE (ssRNA)
RNA: GGGAGUUCUACAGUCCGACGAUCACAUCGGGCAACAUUCCGGAUUGUGUAGCCUCCUCCACCGAGCAUCAGCAAUGGCAAGUUAAAAGUUUUCACUACUUCUACACAUUUAGCAUGACCUUUGACAGUUAGAUUGAAACAACCCAACAGAGGAUUGAGCAUCA
B8: chr11:20101544:20101545:+_ENSMUSG00000020149_ENSMUST00000020358|mus_mus|FALSE|FALSE (ssRNA)
RNA: GGGAGUUCUACAGUCCGACGAUCUGACGCAGCCGCCGCCCCAACUCUCCGCGCCACAGGUAAUGGAAAGGGAGGAAUGAGCUAAGCUGUUCCGGUAGAGCAAACGUCGACCCCACUCCGACCCUUAGAACACAAUCAGCAGCCCAACAGAGGAUUGAGCAUCA
B9: chr1:225611761:225611762:-_ENSG00000143815_ENST00000272163|hu_mus|hu_hu_hu_mus_True|58_88 (ssRNA)
RNA: GGGAGUUCUACAGUCCGACGAUCCCAGGCCAUCGGCCUCUGACCACUUCACCAUCGACAAACUUCCUACUUGGCAUUUUCUAUAAUUAGUCUGGCCGCGCUCCGGCGGGAACUCCAGCCACUCCAGGACAGUCACCAGCAGCCCAACAGAGGAUUGAGCAUCA
B10: chr10:32300344:32300345:-_ENSG00000170759_ENST00000302418|hu_hu|FALSE|FALSE (ssRNA)
RNA: GGGAGUUCUACAGUCCGACGAUCAAGAAGAGUAGGUAGGAAACAGCUGUACAGGCCAGGUAUAAUUUAUACAUUUUUUUUAAAAGUUAUAAUUCUACAAUCCCAAGGGAGUAGAGGUUAUAGUCAUUGAAUGACUGCUUGAUACAACAGAGGAUUGAGCAUCA
B11: chr1:127300101:127300102:-_ENSMUSG00000026341_ENSMUST00000027579|perfect_dup|FALSE|FALSE (ssRNA)
RNA: GGGAGUUCUACAGUCCGACGAUCGGUGUACUGUUUGAUCCACUUUGACCCAUCGGUGUCAUACUUGUUAAACUCUUUUACUAAAUCUGGGCAGACAUAACUGUAGCGUUCCUUCACUGCUUUCGCAGUUUCCAAGGACUGCUCCAACAGAGGAUUGAGCAUCA
B12: chr2:68236527:68236528:-_ENSMUSG00000027030_ENSMUST00000102715|mus_mus|FALSE|FALSE (ssRNA)
RNA: GGGAGUUCUACAGUCCGACGAUCCAUGGAACCUCCACUUAGUAAUUUCAUGACCAGCCACAGCUCAUCUUUGACCACAAAGGAGGUGUAAUAAGUCACUACGUUGGGAUGGCUGCAUUGGCUCAUGGCUUGAAUUUCUUUCAGCAACAGAGGAUUGAGCAUCA
B13: chr3:179287964:179287965:+_ENSG00000136518_ENST00000429709|hu_hu|hu_hu_hu_mus_True|28_38 (ssRNA)
RNA: GGGAGUUCUACAGUCCGACGAUCCUUGAGUGGUGAGAUGGCCUCCAUGUUCUCCCUGGGCACGCGGAGGGCAUUGGUGUCUAUGUAGUAGGUGGGCCCGCCUUGUUUGCCUUUAUCACCAUCAAUCUCCAUCAUUGUACUUCCCAACAGAGGAUUGAGCAUCA
B14: 70718109_70718229_1044_3pUTR_ENSMUSG00000020817_ENSMUST00000076270|mouse|control|control (ssRNA)
RNA: GGGAGUUCUACAGUCCGACGAUCUCUCCAUUCUCUGCAUGUCUCUCAUCAGCAAACGCUGAGAUUCCAGAAACUGGUCGUUGGCCUUCUGCCAUGUAUGCUUUAACUGGUUGUGUUGUUGUCGUUCUUGUUCCAAGAGAUGGCCAACAGAGGAUUGAGCAUCA

Target: T1, UNK ZnF1-3 (human, UniProt Q9C0B0 31-174)
T1 sequence: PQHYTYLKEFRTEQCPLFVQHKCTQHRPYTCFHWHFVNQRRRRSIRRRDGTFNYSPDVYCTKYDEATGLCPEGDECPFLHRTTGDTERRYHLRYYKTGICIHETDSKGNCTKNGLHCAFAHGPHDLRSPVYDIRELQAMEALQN
Assay: nsRBNS (natural sequence RNA bind-n-seq); RBNS binding buffer (assumed for nsRBNS): 25 mM Tris pH 7.5, 150 mM KCl, 3 mM MgCl2, 0.01% Triton X-100, 500 ug/ml BSA, 20 U/ml SUPERase-In, 4 C; UNK is unkempt and MSI1 is Musashi-1; names of the RNAs are library labels; protein concentration not given here; high values mean tight binding

Binder | binding signal [enrichment R]
B1 | 0.556
B2 | 2.13
B3 | 1.3
B4 | 0.939
B5 | 0.533
B6 | 1.2
B7 | 1.56
B8 | 1.68
B9 | 1.17
B10 | 2.9
B11 | 0.437
B12 | 0.924
B13 | 0.581
B14 | 0.647
